Results reported in paper PMC4336329 (PLoS ONE, 2015).
The campaign covered roughly 310,000 compounds. About 2,200 (0.71%) showed an effect of 50% or more. The effect is printed as a negative number. The list shows a part of the results.

Biological target: human ether-à-go-go-related gene (hERG) potassium channel (human, UniProt Q12809)
Assay: primary screen, population patch clamp on CHO cells stably expressing hERG

Sequence of human ether-à-go-go-related gene (hERG) potassium channel (Q12809 whole entry, looked up): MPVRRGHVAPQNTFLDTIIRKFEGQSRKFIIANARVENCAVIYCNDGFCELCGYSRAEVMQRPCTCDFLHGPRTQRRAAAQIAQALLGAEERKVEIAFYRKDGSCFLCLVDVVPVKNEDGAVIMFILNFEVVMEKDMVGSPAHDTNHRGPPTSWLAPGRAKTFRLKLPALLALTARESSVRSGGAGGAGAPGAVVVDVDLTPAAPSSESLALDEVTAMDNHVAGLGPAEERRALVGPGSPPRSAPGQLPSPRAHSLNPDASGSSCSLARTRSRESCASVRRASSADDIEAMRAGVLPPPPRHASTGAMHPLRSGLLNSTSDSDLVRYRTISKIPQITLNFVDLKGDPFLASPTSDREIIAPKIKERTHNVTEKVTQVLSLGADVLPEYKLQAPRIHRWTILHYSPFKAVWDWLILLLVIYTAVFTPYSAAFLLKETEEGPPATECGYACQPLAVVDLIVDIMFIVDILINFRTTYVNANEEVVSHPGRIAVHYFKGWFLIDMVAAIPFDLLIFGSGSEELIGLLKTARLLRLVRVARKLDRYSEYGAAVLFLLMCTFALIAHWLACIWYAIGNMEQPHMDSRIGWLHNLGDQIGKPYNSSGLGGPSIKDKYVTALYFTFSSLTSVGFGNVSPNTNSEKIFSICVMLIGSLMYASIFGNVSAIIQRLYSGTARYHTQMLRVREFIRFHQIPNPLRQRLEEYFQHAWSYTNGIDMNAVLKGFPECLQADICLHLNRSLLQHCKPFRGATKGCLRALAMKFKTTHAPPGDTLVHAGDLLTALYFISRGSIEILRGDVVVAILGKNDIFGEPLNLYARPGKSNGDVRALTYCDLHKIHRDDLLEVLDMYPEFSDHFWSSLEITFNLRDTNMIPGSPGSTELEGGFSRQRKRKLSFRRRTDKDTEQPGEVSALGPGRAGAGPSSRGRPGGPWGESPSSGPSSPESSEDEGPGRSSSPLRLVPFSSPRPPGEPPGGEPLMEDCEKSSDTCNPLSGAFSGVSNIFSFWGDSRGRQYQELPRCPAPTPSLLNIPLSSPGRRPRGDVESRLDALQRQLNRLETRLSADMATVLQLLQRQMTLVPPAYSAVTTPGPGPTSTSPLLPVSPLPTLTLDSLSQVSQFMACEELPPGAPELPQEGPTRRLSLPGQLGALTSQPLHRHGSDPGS

Compared with CCn1ncc(CN2CCC(Oc3ccc(C(=O)N4CCCC4)cc3)CC2)c1C, CCOC(=O)c1[nH]ncc1CN1CCc2ccc(NC(=O)C3CCCO3)cc2C1 (stereo not drawn) is higher in “hERG current change (%, negative = inhibition) at 1uM” value: 8.15% for the first, 13.7% for the second.

Going from COc1ccc(-c2cc3nc(-c4ccccc4)cc(N4CCCC(O)C4)n3n2)cc1 (stereo not drawn) to COC(=O)c1cn(C(=O)c2ccc(OC)cc2)c2ccccc12, the “hERG current change (%, negative = inhibition) at 1uM” value rises from 11.9% to 13.3%.

Compared with CCOC(=O)CNC(=O)CSc1nc2c(C)cccc2cc1CC, Cc1ccc(C(=O)NCC(=O)Nc2ncccc2C)s1 is higher in “hERG current change (%, negative = inhibition) at 1uM” value: 11.7% for the first, 17.1% for the second.

First: COc1ccc(C(=O)Nc2ccc(Nc3ccccc3)cc2)cc1Br
Second: COc1ccccc1N1CCN(CCN(C(=O)c2ccc(F)cc2)c2ccccn2)CC1.Cl
The “hERG current change (%, negative = inhibition) at 1uM” value of the first is higher: 6.15% for the first, -57.8% for the second.

First: Cc1cc(O)c(CN2CCN(S(=O)(=O)c3cccs3)CC2)cc1C(C)C
Second: CCOc1ccc(CN2CCN(S(=O)(=O)c3ccc(NC(C)=O)cc3)CC2)cc1OC.O=C(O)C(=O)O
The “hERG current change (%, negative = inhibition) at 1uM” value of the first is higher: 0.661% for the first, -0.675% for the second.

Going from Cn1cnnc1SCC(=O)Nc1ccc(S(=O)(=O)N2CCCC2)cc1 to COc1cc(OC)nc(NC(=O)NS(=O)(=O)c2ccc(OC(F)(F)F)cc2)n1, the “hERG current change (%, negative = inhibition) at 1uM” value rises from -4.05% to 16.3%.

First: Cc1[nH]n2c(=O)c3c(nc2c1-c1ccccc1)CCC3
Second: CCN1C(=O)C(F)(CC)C(=O)c2ccccc21 (stereo not drawn)
The “hERG current change (%, negative = inhibition) at 1uM” value of the first is lower: 4.56% for the first, 7.71% for the second.

Compared with CCCn1c(N)c(N(CCOC)C(=O)c2ccc([N+](=O)[O-])c(C)c2)c(=O)[nH]c1=O, CCOC(=O)c1c(C)n(C)c2cc(OCCN(CC)CC)ccc12 is lower in “hERG current change (%, negative = inhibition) at 1uM” value: 14.2% for the first, 9.43% for the second.

Going from O=C(N/N=C\C1CC=CCC1)c1ccc(Br)o1 (stereo not drawn) to COc1cc(S(=O)(=O)NC2CCCCC2)ccc1Cl, the “hERG current change (%, negative = inhibition) at 1uM” value falls from 4.02% to 3.16%.

First: CCOc1ccc(C2c3[nH]c4ccccc4c3C[C@H]3C(=O)N(C4CCN(Cc5ccccc5)CC4)CC(=O)N23)cc1OC (stereo partly drawn)
Second: NC(=O)/C(=C\c1ccncc1)c1cccc2ccccc12
The “hERG current change (%, negative = inhibition) at 1uM” value of the first is lower: 12.2% for the first, 19.7% for the second.

First: Cc1c(CC(=O)N[C@H](C(=O)O)C(C)C)c(=O)oc2cc3c(cc12)CCC(C)(C)O3
Second: Cc1ccc(S(=O)(=O)NNC(=S)Nc2cccc(F)c2)cc1
The “hERG current change (%, negative = inhibition) at 1uM” value of the first is higher: 10.5% for the first, 7.03% for the second.

First: O=C(NCCCO)C12CC3CC(CC(C3)C1)C2
Second: O=C(Nc1cc(F)ccc1F)C1CCCN(c2ncnc3c2nc2n3CCCCC2)C1 (stereo not drawn)
The “hERG current change (%, negative = inhibition) at 1uM” value of the first is higher: 26.5% for the first, 7.35% for the second.
